The IC50 comes from the fitted curve, where viability falls to half of the control; a limit (>, <) means that the fit lies beyond the doses tested. For AUC the same curve is integrated over the 256-fold range of doses and scaled to a fraction; it is 1 without any effect and falls as sensitivity rises. For part of these data: An inferred top dose comes from the curve model; the source does not state it. For part of these data: An entry number marks a drug with two screens in the source, which often give different values.
Columns and labels:
Test in all cases: Viability of human cancer cell lines after 72 h of drug (GDSC screen)
NSC-207895 = compound: CN1CCN(c2ccc([N+](=O)[O-])c3no[n+]([O-])c23)CC1 [NSC-207895]; conditions: top dose 20 µM; top dose inferred
Experimental: (§1)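 Human cancer cell lines in 384-well plates, medium with 10% serum, drug for 72 h over a 256-fold dose range (nine 2-fold or five 4-fold steps up to the top dose). Adherent lines were fixed and stained with the nucleic acid dye Syto60, suspension lines read with resazurin; signal relative to control wells, capped at 0 and 100%. One two-parameter sigmoid per drug and line, fitted in a mixed model over all curves with the slope shared within a line.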

FTI-277 = compound: COC(=O)[C@H](CCSC)NC(=O)c1ccc(NC[C@@H](N)CS)cc1-c1ccccc1 [FTI-277]; conditions: top dose 1.024 µM; top dose inferred
Experimental: as §1

YM155 = compound: COCC[n+]1c2c(n(Cc3cnccn3)c1C)C(=O)c1ccccc1C2=O [YM155]; conditions: top dose 5.12 µM
Experimental: as §1

OSI-906 = compound: C[C@]1(O)C[C@@H](c2nc(-c3ccc4ccc(-c5ccccc5)nc4c3)c3c(N)nccn32)C1 [OSI-906]; conditions: top dose 2.56 µM; top dose inferred
Experimental: as §1

SB-715992 = compound: Cc1ccc(C(=O)N(CCCN)[C@@H](c2nc3cc(Cl)ccc3c(=O)n2Cc2ccccc2)C(C)C)cc1 [SB-715992]; conditions: top dose 0.128 µM; top dose inferred
Experimental: as §1

JQ1 = compound: Cc1sc2c(c1C)C(c1ccc(Cl)cc1)=N[C@@H](CC(=O)OC(C)(C)C)c1nnc(C)n1-2 [JQ1]
Experimental: as §1

Belinostat = compound: O=C(/C=C/c1cccc(S(=O)(=O)Nc2ccccc2)c1)NO [Belinostat]; conditions: top dose 20 µM; top dose inferred
Experimental: as §1

JNJ-26854165 = compound: c1ccc2c(CCNc3ccc(Nc4ccncc4)cc3)c[nH]c2c1 [JNJ-26854165]; conditions: top dose 10 µM
Experimental: as §1

AMG-706 = compound: CC1(C)CNc2cc(NC(=O)c3cccnc3NCc3ccncc3)ccc21 [AMG-706]; conditions: top dose 2 µM; top dose inferred
Experimental: as §1

JNK Inhibitor VIII = compound: CCOc1nc(NC(=O)Cc2cc(OC)ccc2OC)cc(N)c1C#N [JNK Inhibitor VIII]; conditions: top dose 10 µM; top dose inferred
Experimental: as §1

[1] = top dose 1 µM, screen: GDSC drug entry 1218, top dose inferred
[2] = top dose 2.56 µM, screen: GDSC drug entry 163

| Cell Line | AUC (NSC-207895) | IC50 (NSC-207895) [nM] | AUC (FTI-277) | IC50 (FTI-277) [nM] | AUC (YM155) | IC50 (YM155) [nM] | AUC (OSI-906) | IC50 (OSI-906) [nM] | AUC (SB-715992) | IC50 (SB-715992) [nM] | AUC (JQ1; [1]) | IC50 (JQ1; [1]) [nM] | AUC (JQ1; [2]) | IC50 (JQ1; [2]) [nM] | AUC (Belinostat) | IC50 (Belinostat) [nM] | AUC (JNJ-26854165) | IC50 (JNJ-26854165) [nM] | AUC (AMG-706) | IC50 (AMG-706) [nM] | AUC (JNK Inhibitor VIII) | IC50 (JNK Inhibitor VIII) [nM] |
| --- | --- | --- | --- | --- | --- | --- | --- | --- | --- | --- | --- | --- | --- | --- | --- | --- | --- | --- | --- | --- | --- | --- |
| HOP-92 (large cell lung carcinoma, adherent) | 0.953 | > 20000 | 0.965 | > 1020 | 0.116 | < 20 | 0.936 | > 2560 | 0.977 | > 128 | 0.966 | > 1000 | 0.901 | > 2560 | 0.695 | 4860 | 0.905 | > 10000 | – | – | – | – |
| HSC-3 (head and neck, adherent) | 0.99 | > 20000 | 0.97 | > 1020 | 0.059 | < 20 | 0.972 | > 2560 | 0.961 | > 128 | 0.959 | > 1000 | 0.528 | 188 | 0.625 | 2610 | 0.806 | 4230 | – | – | – | – |
| RT-112 (bladder, adherent) | 0.828 | 13600 | 0.964 | > 1020 | 0.083 | < 20 | 0.905 | > 2560 | 0.697 | 29.9 | 0.983 | > 1000 | 0.83 | 1780 | 0.402 | 658 | 0.821 | 6390 | – | – | – | – |
| Hs940-T (melanoma, adherent) | 0.94 | > 20000 | 0.976 | > 1020 | 0.421 | 186 | 0.825 | 2000 | 0.97 | > 128 | 0.981 | > 1000 | 0.649 | 453 | 0.596 | 2430 | 0.736 | 3460 | – | – | – | – |
| H2804 (mesothelioma, adherent) | 0.959 | > 20000 | 0.985 | > 1020 | 0.155 | 24 | 0.983 | > 2560 | 0.985 | > 128 | 0.984 | > 1000 | 0.77 | 1070 | 0.517 | 1390 | 0.913 | > 10000 | – | – | – | – |
| SN12C (kidney, adherent) | 0.983 | > 20000 | 0.954 | > 1020 | 0.182 | 30.4 | 0.949 | > 2560 | 0.949 | > 128 | 0.949 | > 1000 | 0.857 | 2510 | 0.595 | 2350 | 0.914 | > 10000 | – | – | – | – |
| PCI-38 (head and neck, adherent) | 0.937 | > 20000 | 0.975 | > 1020 | 0.081 | < 20 | 0.986 | > 2560 | 0.846 | 93.8 | 0.983 | > 1000 | 0.867 | 2350 | 0.495 | 1210 | 0.819 | 5750 | – | – | – | – |
| A204 (rhabdomyosarcoma, adherent) | 0.707 | 5780 | 0.96 | > 1020 | 0.05 | < 20 | 0.97 | > 2560 | 0.943 | > 128 | 0.952 | > 1000 | 0.545 | 221 | 0.432 | 771 | 0.608 | 1350 | – | – | – | – |
| NCI-H441 (lung adenocarcinoma, adherent) | 0.979 | > 20000 | 0.968 | > 1020 | 0.092 | < 20 | 0.771 | 1400 | 0.974 | > 128 | 0.971 | > 1000 | 0.807 | 2020 | 0.761 | 10000 | 0.896 | > 10000 | – | – | – | – |
| AN3-CA (endometrium, adherent) | 0.874 | > 20000 | 0.981 | > 1020 | 0.072 | < 20 | 0.945 | > 2560 | 0.975 | > 128 | 0.963 | > 1000 | 0.959 | > 2560 | 0.698 | 4770 | 0.926 | > 10000 | – | – | – | – |
| OCI-LY7 (B-cell lymphoma, suspension) | – | – | – | – | – | – | – | – | – | – | – | – | – | – | – | – | 0.895 | 6100 | 0.994 | > 2000 | 0.981 | > 10000 |
| GP5d (large intestine, adherent) | 0.976 | > 20000 | 0.987 | > 1020 | 0.447 | 233 | 0.866 | 1890 | 0.688 | 25.3 | 0.99 | > 1000 | 0.61 | 311 | 0.423 | 788 | 0.983 | > 10000 | – | – | – | – |
| HPAF-II (pancreas, adherent) | 0.899 | > 20000 | 0.958 | > 1020 | 0.079 | < 20 | 0.854 | > 2560 | 0.881 | > 128 | 0.965 | > 1000 | 0.667 | 541 | 0.727 | 6850 | 0.825 | 8680 | – | – | – | – |

From the supplement of paper PMC4967469
